Reference: publication PMC6325244
No constants are given. Whether binding was seen depends on the method and setting. Binding seen in cells or lysates may run through a third protein. Some results given as binding are weak or reduced against the parent protein; the word gives no strength. Tags and fused reporters may be left off the sequences shown.

How the values were obtained:
[1] = biological target: T1, His-FtsB (E. coli) (UniProt P0A6S5); test: pull-down; coexpression from compatible Duet vectors in E. coli, complexes extracted from membranes with detergent, affinity copurification on a HisTrap/Ni column with one His-tagged protein as bait; eluate labeled with fluorescent ampicillin when PBPs were present, SDS-PAGE, fluorescence imaging, Coomassie staining, immunoblot
T1 sequence: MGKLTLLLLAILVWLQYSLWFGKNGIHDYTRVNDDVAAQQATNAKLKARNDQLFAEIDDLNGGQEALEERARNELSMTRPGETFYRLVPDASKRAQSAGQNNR

[2] = biological target: T2, FtsB^D59H (E. coli) (UniProt P0A6S5); test: as above
T2 sequence: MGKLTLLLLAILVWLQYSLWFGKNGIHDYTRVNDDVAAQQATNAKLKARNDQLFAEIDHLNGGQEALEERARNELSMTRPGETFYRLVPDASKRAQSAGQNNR

[3] = biological target: T3, FtsB^E56A (E. coli) (UniProt P0A6S5); test: as above
T3 sequence: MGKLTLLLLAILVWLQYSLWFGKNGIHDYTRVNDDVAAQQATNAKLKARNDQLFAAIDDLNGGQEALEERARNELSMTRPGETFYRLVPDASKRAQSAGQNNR

[4] = biological target: T4, FtsB^E56K (E. coli) (UniProt P0A6S5); test: as above
T4 sequence: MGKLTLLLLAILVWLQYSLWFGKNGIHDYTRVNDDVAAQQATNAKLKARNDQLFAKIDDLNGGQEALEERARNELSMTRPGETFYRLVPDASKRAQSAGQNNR

[5] = biological target: T1, His-FtsB (E. coli); test: pull-down; FtsB and FtsL expressed without FtsQ and purified together; Coomassie gel shows both bands, immunoblot shows no FtsQ; details in the supplement
[6] = biological target: T5, Strep-FtsB (E. coli) (UniProt P0A6S5); test: pull-down; coexpression of Strep-FtsB, FtsL and FtsQ in E. coli, membranes solubilized with DDM, affinity copurification on StrepTrap, SDS-PAGE
T5 sequence: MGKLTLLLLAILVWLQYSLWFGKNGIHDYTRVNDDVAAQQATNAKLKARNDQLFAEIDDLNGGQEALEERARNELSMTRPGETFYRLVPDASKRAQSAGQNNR

Measured: binding

B1: FtsL (untagged) (protein, UniProt P0AEN4 1-121)
chain: MISRVTEALSKVKGSMGSHERHALPGVIGDDLLRFGKLPLCLFICIILTAVTVVTTAHHTRLLTAQREQLVLERDALDIEWRNLILEENALGDHSRVERIATEKLQMQHVDPSQENIVVQK
binds: all assays above
